Results published in the antibiotic and cytotoxicity screens of Wong et al. (2023).
Some of the results follow.

Tests used:
HSkMC = human skeletal muscle cells; experiment: cytotoxicity call (relative viability < 0.9); details: 10 µM
HepG2 = experiment: cytotoxicity call (relative viability < 0.9); details: 10 µM
S. aureus RN4220 = experiment: growth inhibition call (relative growth <= 0.2); details: 50 µM

Row | SMILES | cytotoxicity call (HSkMC) | cytotoxicity call (HepG2) | growth inhibition call (S. aureus RN4220)
1 | CC(C)NC(=O)N(C)C[C@H]1Oc2ccc(NS(=O)(=O)c3ccccc3)cc2CC(=O)N([C@H](C)CO)C[C@@H]1C | inactive | inactive | inactive
2 | C[C@@H]1ON(c2ccc(C(=O)OC(C)(C)C)cc2)[C@H](c2ccc(O)cc2)[C@H]1C(=O)N1C(=O)OC[C@H]1Cc1ccccc1 | inactive | inactive | inactive
3 | C[C@@H]1CN([C@H](C)CO)C(=O)c2cc(NC(=O)Nc3ccccc3)ccc2O[C@@H](C)CCCCO[C@H]1CN(C)Cc1ccc(C(F)(F)F)cc1 | active | active | inactive
4 | C[C@@H]1CCCCO[C@@H](CN(C)Cc2ccc(C(F)(F)F)cc2)[C@H](C)CN([C@H](C)CO)C(=O)c2cc(NC(=O)Nc3cccc4ccccc34)ccc2O1 | inactive | inactive | inactive
5 | C[C@@H]1CCCCO[C@@H](CN(C)Cc2ccc3c(c2)OCO3)[C@H](C)CN([C@H](C)CO)C(=O)c2cc(NC(=O)Cc3ccccc3)ccc2O1 | inactive | inactive | inactive
6 | CCCNC(=O)N1C[C@H]2[C@@H](c3ccccc31)[C@H](CO)N2C(=O)CN1CCOCC1 | inactive | inactive | inactive
7 | NC[C@H]1Cc2ccccc2O1 | inactive | inactive | inactive
8 | O=C(NCC[C@@H]1CC[C@H](NS(=O)(=O)c2cccc(F)c2)[C@H](CO)O1)C1CC1 | inactive | inactive | inactive
9 | C[C@@H]1CN([C@H](C)CO)C(=O)c2cc(NS(C)(=O)=O)ccc2O[C@@H](C)CCCCO[C@H]1CN(C)S(=O)(=O)c1cccs1 | inactive | inactive | inactive
10 | COCC(=O)Nc1ccc2c(c1)C(=O)N(C)[C@H]1CC[C@@H](CC(=O)NCc3ccccc3Cl)O[C@@H]1CO2 | inactive | inactive | inactive
11 | CCCNC(=O)Nc1ccc2c(c1)C(=O)N(C)C[C@@H](OC)[C@@H](C)CN(C(=O)C1CCOCC1)[C@H](C)CO2 | inactive | inactive | inactive
12 | C[C@H]1CN([C@@H](C)CO)C(=O)CCCn2cc(nn2)CO[C@H]1CN(C)C(=O)Nc1ccc(C(C)(C)C)cc1 | inactive | inactive | inactive
13 | COC[C@H]1CN(C(=O)c2cccc(OC)c2)N1 | inactive | inactive | inactive
14 | CN[C@H]1CN(c2ccc3c(=O)c(C(=O)O)cn(-c4nccs4)c3n2)C[C@@H]1OC | inactive | inactive | inactive
15 | COCC(=O)N1C[C@H](C)[C@@H](OC)CN(C)C(=O)c2ccc(NC(=O)Nc3ccccc3)cc2OC[C@H]1C | inactive | inactive | inactive
16 | CCCCC[C@@H](O)[C@H]1C(=O)O[C@H](C)[C@@H](O)/C=C/C=C/C=C/C=C/C=C(\C)[C@@H](O)C[C@H](O)C[C@H](O)C[C@H](O)C[C@H](O)C[C@H](O)C[C@@H]1O | inactive | inactive | inactive
17 | c1nc(N2CCOCC2)nc(N2CCOCC2)n1 | inactive | inactive | inactive
18 | CC(=O)OCC(=O)C12OC3(CCCC3)OC1CC1C3CCC4=CC(=O)C=CC4(C)C3(F)C(O)CC12C (stereo not given) | inactive | inactive | inactive
19 | CN1CCO[C@H]2CCN(C(=O)c3cn(C)cn3)C[C@H]21 | inactive | inactive | inactive
20 | C[C@@H](NC(=O)C[C@H]1CC[C@@H](NC(=O)CN2CCOCC2)[C@H](CO)O1)c1ccccc1 | inactive | inactive | inactive
21 | CC(=O)[C@]1(N)Cc2c(O)c3c(c(O)c2[C@@H](O[C@H]2C[C@H](O)[C@H](O)CO2)C1)C(=O)c1ccccc1C3=O | active | active | inactive
22 | NC(=O)CNC(=O)c1cccc(Cl)c1 | inactive | inactive | inactive
23 | Cc1ccc(S(=O)(=O)N(C)C[C@@H]2Oc3ccc(NC(=O)Cn4cnnn4)cc3C(=O)N([C@@H](C)CO)C[C@H]2C)cc1 | inactive | inactive | inactive
24 | C[C@@H]1CCCCO[C@H](CN(C)Cc2ccncc2)[C@H](C)CN([C@H](C)CO)C(=O)c2cc(NC(=O)Nc3ccccc3)ccc2O1 | inactive | inactive | inactive
25 | CN(C)CC(c1ccc(O)cc1)C1(O)CCCCC1.O=C(O)CCC(=O)O (stereo not given) | inactive | inactive | inactive
26 | C[C@@H]1CN([C@@H](C)CO)S(=O)(=O)c2ccc(C#CC3CC3)cc2O[C@@H]1CN(C)Cc1cccc(F)c1 | inactive | inactive | inactive
27 | O=C(C[C@@H]1C=C[C@@H](NC(=O)c2cccnc2)[C@H](CO)O1)NCCN1CCCCC1 | inactive | inactive | inactive
28 | C[C@@H]1CCCCO[C@H](CN(C)S(=O)(=O)c2ccc(Cl)cc2)[C@H](C)CN([C@@H](C)CO)C(=O)c2cc(NS(=O)(=O)c3ccc(F)cc3)ccc2O1 | inactive | active | inactive

Row | SMILES | cytotoxicity call (HSkMC) | cytotoxicity call (HepG2) | growth inhibition call (S. aureus RN4220)
29 | C[C@H](CO)N1C[C@H](C)[C@H](CN(C)Cc2ccc(-c3ccccc3)cc2)Oc2ccc(NC(=O)Nc3ccc4c(c3)OCO4)cc2C1=O | inactive | inactive | inactive
30 | O=C(N[C@H]1CC[C@H](CCn2cc(C3(O)CCCC3)nn2)O[C@H]1CO)C1CCOCC1 | inactive | inactive | inactive
31 | C[C@H](CO)N1C[C@H](C)[C@@H](CN(C)C(=O)CN2CCOCC2)Oc2ncc(C#C[C@@H](C)O)cc2C1=O | inactive | inactive | inactive
32 | CC(C)NC(=O)Nc1cccc2c1O[C@@H](CN(C)S(=O)(=O)c1ccccc1)[C@@H](C)CN([C@H](C)CO)C2=O | inactive | inactive | inactive
33 | COc1ccc(NC(=O)Nc2ccc3c(c2)C(=O)N([C@@H](C)CO)C[C@@H](C)[C@@H](CN(C)S(=O)(=O)c2cn(C)cn2)O3)cc1 | inactive | inactive | inactive
34 | Cc1ccc(S(=O)(=O)Nc2cccc3c2O[C@H](CN(C)S(=O)(=O)c2cccs2)[C@H](C)CN([C@H](C)CO)C3=O)cc1 | inactive | inactive | inactive
35 | Cc1noc(C)c1NC(=O)N(C)C[C@H]1Oc2ccc(NS(=O)(=O)c3cn(C)cn3)cc2C(=O)N([C@@H](C)CO)C[C@@H]1C | inactive | inactive | inactive
36 | CS(=O)(=O)N1[C@@H]2c3ccc(-c4cccc(F)c4)c(=O)n3C[C@H]1[C@H](CO)[C@H]2C(=O)N1CCOCC1 | inactive | inactive | inactive
37 | O=C(C[C@@H]1C[C@@H]2c3cc(NC(=O)c4ccc5c(c4)OCO5)ccc3O[C@@H]2[C@H](CO)O1)NCCN1CCCCC1 | inactive | inactive | inactive
38 | CN(C)CCCCNC(=O)[C@H]1C[C@H]2C(=O)N[C@@H](CCCC[N+](C)(C)C)C(=O)N2[C@H]1c1ccc(O)cc1 | inactive | inactive | inactive
39 | C[C@@H]1CCCCO[C@H](CN(C)C(=O)C2CCCCC2)[C@@H](C)CN([C@H](C)CO)C(=O)c2cc(NC(=O)Nc3ccccc3)ccc2O1 | inactive | inactive | inactive
40 | C[C@@H]1CCCCO[C@@H](CN(C)Cc2ccc(C(=O)O)cc2)[C@@H](C)CN([C@H](C)CO)C(=O)c2cc(NC(=O)c3ccccc3)ccc2O1 | inactive | inactive | inactive
41 | C[C@H]1CN([C@@H](C)CO)C(=O)c2cc(NS(=O)(=O)c3ccccc3)ccc2O[C@H]1CN(C)S(=O)(=O)c1ccc(F)cc1 | inactive | inactive | inactive
42 | COCC#Cc1ccc([C@H]2[C@H](CO)N3C(=O)CN(C(=O)C4CCOCC4)C[C@@H]23)cc1 | inactive | inactive | inactive
43 | C[C@@H]1CN([C@@H](C)CO)C(=O)c2cccc(NS(=O)(=O)c3cn(C)cn3)c2O[C@H]1CN(C)CC1CC1 | inactive | inactive | inactive
44 | C[C@@H]1CCCCO[C@@H](CN(C)CC2CCCCC2)[C@H](C)CN([C@H](C)CO)C(=O)c2cc(NC(=O)Nc3ccc4c(c3)OCO4)ccc2O1 | inactive | inactive | inactive
45 | COc1ccc(S(=O)(=O)Nc2ccc3c(c2)C(=O)N([C@@H](C)CO)C[C@H](C)[C@H](CN(C)Cc2ccccc2)OCCCC[C@H](C)O3)cc1 | inactive | inactive | inactive
46 | COc1ccc(NC(=O)Nc2ccc3c(c2)C(=O)N([C@@H](C)CO)C[C@H](C)[C@H](CN(C)S(=O)(=O)c2ccccc2)OCCCC[C@@H](C)O3)cc1 | inactive | inactive | inactive
47 | CC(C)(C)C1CCC(OC[C@@H](O)CN2CCC(CN3C(=O)c4cccc5cccc(c45)C3=O)CC2)CC1 (stereo not given in full) | active | active | active
48 | Cc1noc(C)c1NC(=O)N(C)C[C@@H]1Oc2ccc(NC(=O)C3CC3)cc2CC(=O)N([C@@H](C)CO)C[C@H]1C | inactive | inactive | inactive
49 | CCCNC(=O)N1C[C@@H](O)COC[C@@H]2O[C@H](CC(=O)NCCCN3CCOCC3)CC[C@H]21 | inactive | inactive | inactive
50 | C[C@H](CO)N1C[C@H](C)[C@H](CN(C)Cc2ccc(C(=O)Nc3ccccc3N)cc2)Oc2ccc(NC(=O)Nc3ccc(F)cc3)cc2CC1=O | inactive | inactive | inactive
51 | CO[C@@H]1CN(C)C(=O)c2cc(NC(=O)Nc3ccc(Cl)cc3)ccc2OC[C@H](C)N(C(=O)Nc2c(C)noc2C)C[C@@H]1C | inactive | inactive | inactive
52 | c1ccc2c(c1)Cc1cccnc1-2 | inactive | inactive | inactive
53 | O=C(C[C@@H]1CC[C@H]2[C@@H](COC[C@@H](O)CN2C(=O)C2CC2)O1)NCc1ccncc1 | inactive | inactive | inactive
54 | Cc1noc(C)c1S(=O)(=O)Nc1ccc2c(c1)C(=O)N([C@H](C)CO)C[C@H](C)[C@H](CN(C)Cc1ccccc1)OCCCC[C@@H](C)O2 | inactive | inactive | inactive
55 | C=CC[C@@H](CC(=O)N[C@@H](CO)Cc1ccccc1)C(=O)N[C@@H](C)COC(=O)[C@@H](CC=C)CC(=O)OC(C)(C)C | inactive | inactive | inactive
